Reference: PMC12136788
The other results are listed elsewhere or left out.

B1: chr1:115282363:115282364:-_ENSG00000009307_ENST00000339438|perfect_dup|FALSE|FALSE (ssRNA)
RNA: GGGAGUUCUACAGUCCGACGAUCAUCAUCUCCUACUUUUAAGUCUUGGAGGUUGCCAUUAUAUUGUGAACAGUGGAAGAAAAGUCUAGCUUGCCGUUCUGAACACUGAAUGAAUCCGUAAGAGGUCAAGAGUUUUUCAAUAACCAACAGAGGAUUGAGCAUCA
B2: chr11:87793471:87793472:-_ENSMUSG00000020483_ENSMUST00000020775|mus_mus|mus_mus_mus_hu_False|18_58 (ssRNA)
RNA: GGGAGUUCUACAGUCCGACGAUCUGGACUUGAAAAUAAAAGAAUAAGCUGGAUCCCCCACCCCCCCACAUUGUCAACCCUAUGCGAGAGUUUUGAAGGCGACUCAUGAAAAUCAGCCUCAAUUGGCGCAAUGACCACCCCACCCAACAGAGGAUUGAGCAUCA
B3: 124382131_124386908_2824_CDS_ENSMUSG00000008153_ENSMUST00000008297|mouse|control|control (ssRNA)
RNA: GGGAGUUCUACAGUCCGACGAUCAAAGCCCACGCAUACCACAAUGAUGAGAGUCGCAGCACUGGGGACCAUGGAGUUCCGGUGGGAGCUGGCCAGGCUGUGUCCAGCCAUCUCAGGAGGAGGCUGGUGACCCCGGUGCAGGAACAACAGAGGAUUGAGCAUCA
B4: chr12:39756943:39756944:-_ENSG00000139116_ENST00000544797|hu_mus|hu_hu_hu_mus_False|18_58 (ssRNA)
RNA: GGGAGUUCUACAGUCCGACGAUCGGUUUGGCUGUUACCCCCAAGGGAAUCCUGCAAGAGUCUUGUCAGCUUAGAGUCUCUAUAGGGGACAUGGGUGGCUCUCUUGCUCUUGUCCCCCAAGGCACUUAUUACAUUCCCAAGAGCCAACAGAGGAUUGAGCAUCA
B5: chr2:119791414:119791415:+_ENSMUSG00000033943_ENSMUST00000110774|mus_hu|motif|central (ssRNA)
RNA: GGGAGUUCUACAGUCCGACGAUCUACUUUACUGAAGGCUUGAAUUUGUUAAUUCUGAUUGAAAAGGUGAGGGAAUGGGAGCGGCUUAGGAUAUGAAAAAAGAAAAUUUUACUGAAUGACACAAAGUCCUUCACUUUGGUAUUCCAACAGAGGAUUGAGCAUCA
B6: chr17:45761549:45761550:+_ENSG00000108424_ENST00000290158|hu_hu|motif|central (ssRNA)
RNA: GGGAGUUCUACAGUCCGACGAUCGACAUGGAAGGGAGGAUAUAAACGAGGAGUUGGAGAAAAACGCAAGCCCAGUUUUUGCGGGAGUGGAAAUGAAAGUGGGAAUGAGGGUCUUGUUUUUAGUCCUCUAAGGACCAGGAAGCACAACAGAGGAUUGAGCAUCA
B7: 181683477_181683597_5564_CDS_ENSMUSG00000026491_ENSMUST00000027768|mouse|control|control (ssRNA)
RNA: GGGAGUUCUACAGUCCGACGAUCAGUUCUCUUCUUAGGAGUGGCAACUGCUGAAGGCUCUUGUUCUGAUGUGACAUUCAGGCUUAGGGCAUGCUGCCUUCUUGUGAGAGUUCUAGAAGAAACCAUGUCAUCAUUCUGGCUGGUCAACAGAGGAUUGAGCAUCA
B8: chr5:80946147:80946148:-_ENSG00000145687_ENST00000505980|hu_hu|FALSE|FALSE (ssRNA)
RNA: GGGAGUUCUACAGUCCGACGAUCUGUUUGAGCUGAUUUCUGAGCUCCUACAUGGAGCAGAUAUUCAUAUACGUAGAGUGCUAACUUCUCCCGGGCCUGGCUGUCGGACGGGACGGCGCUGCUGUUACUCUUGCCUUUGCCGUACAACAGAGGAUUGAGCAUCA
B9: chr9:100852126:100852127:+_ENSMUSG00000037286_ENSMUST00000129269|mus_mus|FALSE|FALSE (ssRNA)
RNA: GGGAGUUCUACAGUCCGACGAUCGCCAUGCUCAGACUCAGGUUCCUGAAUCUGCUCUCCCAUGGGACGGCUGUUUUCUCUAAGUACCGUGGAGGUGAGCUGUGGGGUUGGCAAGGGUCCAGGAGUCUGAAUCAUCGUGUCAGUCAACAGAGGAUUGAGCAUCA
B10: chr4:41951345:41951346:+_ENSG00000109133_ENST00000513702|hu_mus|motif|central (ssRNA)
RNA: GGGAGUUCUACAGUCCGACGAUCAAACAAGUUCCGACAAUAUGGAUUUCUUCUAGAGGAAUAUCGAAGAGUAAGAAAUCGGUAAUAUAUAAAAGGCUGGAGCAAACUUCCUUGGCCACUAAAGAGCAUAAAAACUGUAGCAGGCAACAGAGGAUUGAGCAUCA
B11: chr5:176910979:176910980:-_ENSG00000196923_ENST00000355841|hu_mus|FALSE|FALSE (ssRNA)
RNA: GGGAGUUCUACAGUCCGACGAUCCUCCAGCAUCAAUCUUGAAGUCACAGCCUCGACAUUUUGUGCCAAACAUCUUCUCAUAGUCUCGCUCGCAGUAGGGGGCCCCUUCUUCCAUGUAAAAGGCUCUGUUGCGAAUUGGCGUUUCAACAGAGGAUUGAGCAUCA
B12: 120692271_120696741_4937_CDS_ENSMUSG00000027272_ENSMUST00000028728|mouse|control|control (ssRNA)
RNA: GGGAGUUCUACAGUCCGACGAUCCUCAUCAUCUGCAGACCGUGGACACCUAAAGUGAGAAGCCUGAUUUAGAAGACAGCUGUAGUCCUCAGGAAGCUCUAUCAAACUAUUUCUUUUUCUAGGGUACCUGACCACAGCACUUUUCAACAGAGGAUUGAGCAUCA
B13: chr16:28827448:28827449:-_ENSMUSG00000051065_ENSMUST00000100023|mus_mus|FALSE|FALSE (ssRNA)
RNA: GGGAGUUCUACAGUCCGACGAUCGGACUCUCAGUGAAAACUCGGGAGAAGAACGAGGUCAAAGACAGAACAUCAGCCGAAGAGGAAGAGAAUGUGUUCAAAUAUGCCAGGAGGAGAUGUGUUCCCCCAAACCCACCAACAAAUCAACAGAGGAUUGAGCAUCA
B14: chr17:25053547:25053548:-_ENSMUSG00000024163_ENSMUST00000126280|mus_mus|FALSE|FALSE (ssRNA)
RNA: GGGAGUUCUACAGUCCGACGAUCUGACCUCCAAAUGUAUUGCAAAGAACCCACACUCUUAGCGGUCAUUCCUCACCAUGAGUAGCCACAACUGUUUGGUUAAAACACUACAGUAUAUAAAAACAAAAAACAAAACAAAAAACACAACAGAGGAUUGAGCAUCA
B15: chr9:106791465:106791466:-_ENSMUSG00000032575_ENSMUST00000069036|mus_hu|FALSE|FALSE (ssRNA)
RNA: GGGAGUUCUACAGUCCGACGAUCUUUAGGCAUCAGUUCAUUUAUCUUCCGGAUGUAGUCAGACUUUUCUGCACAGCCUUUGCAUGUCUCCCCCCAGUCAUCCAGAAUCUUCUUCAGCUCUUUAACUCGGAGCUUCUUCAGGUCCAACAGAGGAUUGAGCAUCA
B16: chr4:39739082:39739083:+_ENSG00000078140_ENST00000261427|perfect_dup|FALSE|FALSE (ssRNA)
RNA: GGGAGUUCUACAGUCCGACGAUCUAUUUUUAUCUCUAGUUGAUAUCUUCCACCUUCAUACGGUGUGUCUGGAGGUCCUGCUAUUUCUCCUCUUAAUUCUGUAAAAUUCUCAUCUACAAGAUCUACUUUAAUUUGAUUUUUGCUCAACAGAGGAUUGAGCAUCA
B17: chr11:4127340:4127341:+_ENSG00000167325_ENST00000300738|hu_mus|hu_hu_hu_mus_False|98_98 (ssRNA)
RNA: GGGAGUUCUACAGUCCGACGAUCGGCAUAGUCAGGGUGCUUAGUAGUCAAGGUCGCGGCUGUCUCAGCAGCCAGGGUGUCCAGUUCCACUGUGGUGACCCCACUAUAUAGGCCUUGGAUUACUUUCAUGGUGAUCUGAGCAGGCAACAGAGGAUUGAGCAUCA
B18: 118651850_118656837_489_CDS_ENSG00000110367_ENST00000264018|human|control|control (ssRNA)
RNA: GGGAGUUCUACAGUCCGACGAUCCUUUGGAGGGAGUUUUAAAGUCUUUUUCCAGUCAUCACCAGGUUUAAUAGUGGUGGUCAUACUCUGUGCUUGCUGCUGAGUGCCAUUAUUGAUUGUGUUGGUGUUUUUCAGCUGGUUCAUCAACAGAGGAUUGAGCAUCA
B19: chr12:88041583:88041584:-_ENSMUSG00000021257_ENSMUST00000021682|mus_mus|FALSE|FALSE (ssRNA)
RNA: GGGAGUUCUACAGUCCGACGAUCUUCUGCCGGCUCCAGGGUGCAGUUUAAGUGCCAUUUAAACCCCCACACUUCAUUUCUAAAACAGAAACAAGGAGAAACAAGGAAAAGAUAAACCACCAAGCUCUGACCCUCUGCCUCCUUCAACAGAGGAUUGAGCAUCA
B20: chr2:48782664:48782665:-_ENSMUSG00000026761_ENSMUST00000141441|mus_hu|motif|central (ssRNA)
RNA: GGGAGUUCUACAGUCCGACGAUCCACUCUUUUUUCUAAGAGUUCCAAAAUAUCCAAUCUACAUGUAAGACCAAUAACUGCGGUUGGGGUCUGUGCAGACUGAGAAAUGUCAAAAAGAUUAUAGAGAAGUGUUUGGUUUUUAUGCAACAGAGGAUUGAGCAUCA
B21: 107399791_107399911_2171_3pUTR_ENSG00000105879_ENST00000440859|human|control|control (ssRNA)
RNA: GGGAGUUCUACAGUCCGACGAUCUUUCAAAUUUUUUACAAAUGGUCACCUCUGGGUCAAUUUACUAAACUAGGGGAACAAAGAGAUGUUAAAAUAUAGCUGUGCUCAACUGAGCCACUUAUCUGUACUACAGUAUGGUACUUGCAACAGAGGAUUGAGCAUCA
B22: chr11:108017000:108017001:+_ENSG00000075239_ENST00000265838|hu_mus|FALSE|FALSE (ssRNA)
RNA: GGGAGUUCUACAGUCCGACGAUCAUUUACUUUUUGGGGGUCAAUCUCCAGCAUUUUAAUGUUGGCUAGCACAACCACACUGAAUGCUUCAUUUACUUCCCACAUGGCAAUGUCUUCUUUUUUCAGUCCUGCAUAUUUAAGAACCAACAGAGGAUUGAGCAUCA

Each binder was assayed against T1, UNK ZnF1-3 (human, UniProt Q9C0B0 31-174) (assay: nsRBNS (natural sequence RNA bind-n-seq); RBNS binding buffer (assumed for nsRBNS): 25 mM Tris pH 7.5, 150 mM KCl, 3 mM MgCl2, 0.01% Triton X-100, 500 ug/ml BSA, 20 U/ml SUPERase-In, 4 C; UNK is unkempt and MSI1 is Musashi-1; names of the RNAs are library labels; protein concentration not given here; high values mean tight binding).
T1 sequence: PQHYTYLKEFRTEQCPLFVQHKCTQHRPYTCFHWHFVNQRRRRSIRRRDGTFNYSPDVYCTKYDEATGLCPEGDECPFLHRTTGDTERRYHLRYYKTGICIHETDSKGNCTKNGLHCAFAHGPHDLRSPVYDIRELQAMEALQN

Row | Binder | binding signal [enrichment R]
1 | B1 | 1.19
2 | B2 | 1.35
3 | B3 | 1.21
4 | B4 | 0.71
5 | B5 | 1.74
6 | B6 | 2.26
7 | B7 | 0.546
8 | B8 | 0.648
9 | B9 | 0.8
10 | B10 | 2.46
11 | B11 | 0.719
12 | B12 | 0.851
13 | B13 | 1.96
14 | B14 | 1.85
15 | B15 | 0.725
16 | B16 | 0.379
17 | B17 | 0.84
18 | B18 | 0.327
19 | B19 | 1.73
20 | B20 | 1.09
21 | B21 | 1.46
22 | B22 | 0.578
